# Measurements reported in PubChem BioAssay (NCATS).
# The shares of active, inactive and inconclusive entries below differ from those in the screen. For some of these results: Potencies of inconclusive entries are left out as doubtful fits. Active and inactive are the calls of the source. Unless noted, calls follow the shape of the dose curve; as a rule, active = well fitted curve in the direction sought with a large enough effect; inconclusive = small, poorly fitted or top-dose-only effect, or another doubt; inactive = no such curve, though single readings can be large; an effect the other way counts as inactive or inconclusive.
# Experiments:
# [1] = qHTS of pediatric cancer cell lines to identify multiple opportunities for drug repurposing: Primary screen for SJ-GBM2 cells (AID 1347091); also: potency is read from the fitted curve at half-maximal effect
# In short: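 Viability measured as metabolically active cells via CellTiter-Glo luminescence following 48 hours of compound exposure, 11-point dilutions in confirmatory testing. 500-1,000 cells/well plated 5 hours before dosing; controls were DMSO and 2.3 µM bortezomib.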
# [2] = qHTS of pediatric cancer cell lines to identify multiple opportunities for drug repurposing: Primary screen for Saos-2 cells (AID 1347097); conditions: Saos-2 viability, CellTiter-Glo ATP luminescence, 48 h; activity change, negative = cytotoxic: at 46 µM (top of the series); also: potency is read from the fitted curve at half-maximal effect; nearly all actives have a fitted effect of over 40% in size
# In short: (§1)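 ATP-based luminescence (CellTiter-Glo) quantifies viability after a 48-hour exposure. Compounds are dosed across 8 or 11 final concentrations; DMSO and 2.3 µM bortezomib serve as controls.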
# [3] = qHTS of pediatric cancer cell lines to identify multiple opportunities for drug repurposing: Primary screen for NB1643 cells (AID 1347099); also: potency is read from the fitted curve at half-maximal effect; nearly all actives have a fitted effect of over 50% in size
# In short: as §1
# [4] = qHTS of pediatric cancer cell lines to identify multiple opportunities for drug repurposing: Primary screen for BT-12 cells (AID 1347101); also: nearly all actives have a fitted effect of over 25% in size; also: potency is read from the fitted curve at half-maximal effect
# In short: (§2)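 Cells (500-1,000/well) rested 5 h, then received compounds for 48 h; metabolically active cells were measured by CellTiter-Glo luminescence. Final concentrations spanned up to 46 µM (MIPE, 11-point) or 0.59 nM-46 µM (NPC, 8-point) in primary screens, 11-point in follow-ups.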
# [5] = qHTS of pediatric cancer cell lines to identify multiple opportunities for drug repurposing: Primary screen for OHS-50 cells (AID 1347103); also: nearly all actives have a fitted effect of over 40% in size; also: potency is read from the fitted curve at half-maximal effect
# In short: as §2
# MKL-2 = experiment: qHTS assay to identify novel small-molecules to repurpose for Merkel cell carcinoma treatment (AID 1296009); conditions: MCC and control cell lines, CellTiter-Glo viability, 72 h; activity change, negative = cytotoxicity: at 46 µM (top of the series); also: nearly all actives have a fitted effect of over 60% in size; also: potency is read from the fitted curve at half-maximal effect
# In short: (§3)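 CellTiter-Glo luminescence after 72 hr compound exposure at 37 degree celsius gave cell viability. Libraries NPC and MIPE were run as 8- and 11-point dose responses; RLUs normalized to DMSO (negative) and no-cell (cytotoxicity) controls.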
# UISO = experiment: as above; conditions: MCC and control cell lines, CellTiter-Glo viability, 72 h; activity change, negative = cytotoxicity: at 46 µM (top of the series)
# In short: as §3
# WaGa = experiment: as above; conditions: MCC and control cell lines, CellTiter-Glo viability, 72 h; series mostly up to 46 µM
# In short: as §3
# [6] = qHTS of pediatric cancer cell lines to identify multiple opportunities for drug repurposing: Primary screen for SK-N-MC cells (AID 1347093); conditions: SK-N-MC viability, CellTiter-Glo luminescence, 48 h; activity change, negative = cytotoxic: at 46 µM (top of the series); also: potency is read from the fitted curve at half-maximal effect
# In short: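 Metabolically active cells were quantified by ATP-dependent luminescence (CellTiter-Glo, 15 min at room temperature) following 48 h treatment. Cells had been plated at 500-1,000 per well and settled for 5 h beforehand.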
# [7] = qHTS of pediatric cancer cell lines to identify multiple opportunities for drug repurposing: Primary screen for SK-N-SH cells (AID 1347098); conditions: SK-N-SH viability, CellTiter-Glo luminescence, 48 h; activity change, negative = cytotoxic: at 57 µM (top of the series); also: potency is read from the fitted curve at half-maximal effect; nearly all actives have a fitted effect of over 65% in size
# In short: as §2
# [8] = A High-Content qHTS Against Drug Library for the Identification of Small Molecules that Inhibit DYT1 Early Onset Primary Dystonia-Associated Cell Pathology (AID 1645839; calls by dose curve; also: potency is read from the fitted curve at half-maximal effect)
# In short: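 Cells were seeded and left for 24 h, then dosed with compound alongside tetracycline induction of mutant EGFP-TorsinA. They were incubated for 48 h, fixed in 4% paraformaldehyde, permeabilized and imaged for mislocalization (%pathology) and cell count.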
# [9] = Primary qHTS for small molecule stabilizers of the endoplasmic reticulum resident proteome: Secreted ER Calcium Modulated Protein (SERCaMP) assay (AID 1508630); conditions: SH-SY5Y GLuc-SERCaMP (Gaussia luciferase released on ER calcium loss) secretion, thapsigargin, luminescence; series mostly up to 38.4 µM
# In short: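 The SH-SY5Y reporter protocol was run at 3 concentrations up to 38.3 uM (primary) or 11 concentrations (follow-up): 16 h compound, 100 nM thapsigargin for 4 h, then extracellular luciferase luminescence.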
# [10] = target: Cytochrome P450 2D6 (Homo sapiens) (UniProt P10635); experiment: Cytochrome P450 family 2 subfamily D member 6 (CYP2D6) small molecule antagonists: luciferase biochemical (cell-free) qHTS assay (AID 1645840; active = well fitted curve in the direction sought with a large enough effect in the repeat runs; inconclusive = weak or mixed curves; inactive = no such curve, though single readings can be large; an effect the other way counts as inactive or inconclusive; also: nearly all actives have a fitted effect of over 55% in size; also: potency is read from the fitted curve at half-maximal effect)
# In short: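 P450-Glo CYP2D6 system: proluciferin substrate converted by enzyme to luciferin, read by luminescence proportional to activity. Enzyme-substrate mix with compound 10 min at room temperature, then NADPH regeneration 1 h before detection reagent.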
# HeLa = experiment: Primary qHTS to identify gynecologic anti-cancer compounds using libraries of approved drugs and bioactive compounds (AID 1345084); conditions: Gynecologic cancer cell panel viability, ATPlite luminescence, 48 h; series mostly up to 57.5 µM; also: nearly all actives have a fitted effect of over 55% in size; also: potency is read from the fitted curve at half-maximal effect
# In short: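 Cells, 1,000 per well, were allowed to settle for 16 h at 37 C before compound addition. Five concentrations were tested for 48 h, and viability was read by ATPlite luminescence after 15 min at room temperature.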
# [11] = test system: Zika virus NS2B-NS3 protease (unlinked complex); experiment: Primary screen GU Rhodamine qHTS for Zika virus inhibitors: Unlinked NS2B-NS3 protease assay (AID 1347159); also: nearly all actives have a fitted effect of over 60% in size; also: potency is read from the fitted curve at half-maximal effect
# In short: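 Percent inhibition came from the 15-min rise in Rhodamine110 fluorescence (1.5 microM substrate, ~15% conversion), normalized to no-inhibitor and no-enzyme wells and Hill-fitted. Unlinked protease, 25 nM, pH 8.0 Tris buffer; compounds up to 114 microM, 15-min preincubation.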
# [12] = target: Phospholipid hydroperoxide glutathione peroxidase GPX4 (Homo sapiens) (UniProt P36969); experiment: Primary qHTS Assay for Inhibitors of Recombinant Selenoprotein Glutathione Peroxidase 4 (GPX4) (AID 1845192); also: nearly all actives have a fitted effect of over 65% in size
# In short: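 Steps: GPX4 plus compound, 30 min RT; add GR/GSH/NADPH master mix; start with cumene hydroperoxide; read 340/450 nm fluorescence at 0 and 15 min. Finals were 200 nM GPX4, 1 mM GSH, 0.5 mM CHP, 0.5 mM NADPH, 100 nM GR.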
# [13] = test system: Zika virus NS2B-NS3 protease (linked construct); experiment: Primary screen NINDS Rhodamine qHTS for Zika virus inhibitors (AID 1347160); also: nearly all actives have a fitted effect of over 55% in size
# In short: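 Rhodamine110-peptide cleavage (1.5 µM substrate) by 25 nM linked NS2B-NS3 enzyme at pH 8.0 (Tris, Tween 20), after 15 min RT preincubation with compounds; 15-min fluorescence change normalized to controls and Hill-fitted.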
# Tags tell the direction and shape of the fitted curve.
# Chain of UniProt P10635 (P10635 whole entry, looked up): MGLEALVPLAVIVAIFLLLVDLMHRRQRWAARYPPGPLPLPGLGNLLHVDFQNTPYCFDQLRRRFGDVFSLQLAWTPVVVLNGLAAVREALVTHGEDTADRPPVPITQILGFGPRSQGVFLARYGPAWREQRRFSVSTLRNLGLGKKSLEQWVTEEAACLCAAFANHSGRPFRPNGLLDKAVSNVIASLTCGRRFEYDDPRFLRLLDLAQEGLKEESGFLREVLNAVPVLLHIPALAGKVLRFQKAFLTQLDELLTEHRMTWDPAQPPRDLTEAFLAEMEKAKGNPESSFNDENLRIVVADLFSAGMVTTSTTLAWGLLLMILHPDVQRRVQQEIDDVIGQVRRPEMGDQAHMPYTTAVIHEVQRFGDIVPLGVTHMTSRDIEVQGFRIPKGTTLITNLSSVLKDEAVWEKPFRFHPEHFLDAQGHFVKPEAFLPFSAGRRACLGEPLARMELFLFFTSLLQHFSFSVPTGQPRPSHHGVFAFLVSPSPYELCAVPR
# Chain of UniProt P36969 (P36969 whole entry, looked up): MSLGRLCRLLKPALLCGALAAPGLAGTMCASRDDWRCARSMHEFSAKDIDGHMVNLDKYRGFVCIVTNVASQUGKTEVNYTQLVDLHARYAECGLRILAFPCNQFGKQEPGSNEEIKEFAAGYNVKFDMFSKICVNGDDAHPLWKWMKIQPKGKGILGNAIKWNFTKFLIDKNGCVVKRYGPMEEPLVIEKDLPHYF
structure (smiles),measurement,setting,value
Cc1cccc(N(C)C(=S)Oc2ccc3c(c2)C2CCC3C2)c1 (stereo unspecified),Potency,[1],"inconclusive [cytotoxic, single point]"
same,Potency,[2],"inconclusive [cytotoxic, partial curve]"
same,Potency,[3],"inconclusive [cytotoxic, single point]"
same,Potency,[4],"inconclusive [cytotoxic, partial curve]"
same,Potency,[5],"inconclusive [cytotoxic, single point]"
same,Potency,MKL-2,"inconclusive [inhibitor, partial curve, poor fit]"
same,Potency,UISO,"inconclusive [inhibitor, partial curve]"
same,Potency,WaGa,"inconclusive [inhibitor, single point]"
COC(=O)C1=C(C)NC(COC(N)=O)=C(C(=O)OC(C)C)C1c1cccc(Cl)c1Cl (stereo unspecified),Potency,[1],inactive
same,Potency,[6],"inconclusive [cytotoxic, single point]"
same,Potency,[2],"inconclusive [cytotoxic, single point]"
same,Potency,[7],active: 24.4 µM
same,Potency,[4],"inconclusive [cytotoxic, single point]"
same,Potency,[5],"inconclusive [cytotoxic, single point]"
same,Potency,[8],"inconclusive [inhibitor, partial curve, poor fit]"
same,Potency,MKL-2,"inconclusive [inhibitor, single point]"
same,Potency,UISO,inactive
same,Potency,WaGa,"inconclusive [inhibitor, single point]"
CC(NC(CCc1ccccc1)C(=O)O)C(=O)N1C(=O)N(C)CC1C(=O)O (stereo unspecified),Potency,[1],inactive
same,Potency,[4],inactive
same,Potency,[5],inactive
same,Potency,[9],inactive
same,Potency,[10],inactive
same,Potency,MKL-2,inactive
same,Potency,HeLa,inactive
CCC(C)C(=O)OC12C(OC(C)=O)C(C)C3(O)C(C=C(CO)CC4(O)C(=O)C(C)=CC43)C1C2(C)C (stereo unspecified),Potency,[11],inactive
same,Potency,[12],inactive
COC(=O)N1CCC(n2ncc3c(N4CCOCC4)nc(-c4ccc(NC(=O)NC5CC5)cc4)nc32)CC1,Potency,[11],"inconclusive [inhibitor, partial curve, poor fit]"
same,Potency,[13],inactive
same,Potency,[10],active: 16.9 µM
same,Potency,HeLa,"inconclusive [cytotoxic, full curve]"
